The supplement of paper PMC3334620
The full ranking holds about 33,000 sequences; the median of “E-score (-0.5 to 0.5)” is about -0.041, and the highest 2% start at about 0.37. This is one part of the list.

Target: T1, Ecm22 (UniProt Q05958)
T1 sequence: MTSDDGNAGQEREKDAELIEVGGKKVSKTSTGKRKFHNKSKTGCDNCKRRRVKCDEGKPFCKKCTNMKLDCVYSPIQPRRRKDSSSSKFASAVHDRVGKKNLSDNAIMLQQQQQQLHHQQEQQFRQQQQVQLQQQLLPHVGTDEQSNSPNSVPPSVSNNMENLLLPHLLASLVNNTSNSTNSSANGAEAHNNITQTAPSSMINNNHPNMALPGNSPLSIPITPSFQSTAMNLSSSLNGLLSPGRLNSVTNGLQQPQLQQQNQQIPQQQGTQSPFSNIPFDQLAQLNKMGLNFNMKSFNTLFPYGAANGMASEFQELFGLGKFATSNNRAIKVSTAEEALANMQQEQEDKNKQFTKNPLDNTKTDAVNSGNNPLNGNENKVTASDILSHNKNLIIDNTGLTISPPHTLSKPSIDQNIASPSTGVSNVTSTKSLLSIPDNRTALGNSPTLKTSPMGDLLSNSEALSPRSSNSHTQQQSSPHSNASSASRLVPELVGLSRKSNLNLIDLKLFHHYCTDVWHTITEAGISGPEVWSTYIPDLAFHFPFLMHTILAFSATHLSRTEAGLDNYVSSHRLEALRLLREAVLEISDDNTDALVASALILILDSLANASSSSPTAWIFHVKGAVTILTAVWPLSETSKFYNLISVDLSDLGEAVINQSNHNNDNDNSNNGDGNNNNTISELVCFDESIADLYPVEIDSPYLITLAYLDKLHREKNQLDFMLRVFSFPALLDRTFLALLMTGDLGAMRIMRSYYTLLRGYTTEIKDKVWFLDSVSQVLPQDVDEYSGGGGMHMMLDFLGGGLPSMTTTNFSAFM
Test: PBM E-score (8-mer binding enrichment) (E-score (-0.5 to 0.5)); higher = stronger / more preferred TF binding; most listed sequences are background and not binding sites
Settings: protein concentration: 200 nM; construct: GST-full length
Outline: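 The E-score, a modified Wilcoxon-Mann-Whitney statistic, was computed by the Universal PBM Analysis Suite for every ungapped eight-base word pooled with its reverse complement. Scans behind it were normalised with masliner after bound GST-tagged yeast transcription factors were detected with fluorescent anti-GST. The proteins, at about 100-200 nM, had been applied to universal all-10-mer Agilent arrays made double-stranded by primer extension.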

Row | Sequence | PBM E-score
1 | ATATTCTC | -0.0713
2 | CATATGAC | -0.0289
3 | GAGTTACA | -0.162
4 | GCACTTCA | -0.0658
5 | GAGCCACC | -0.23
6 | ATGCAAAA | -0.118
7 | TCTGAAAA | -0.165
8 | CATATAAA | 0.00534
9 | CGGATCTC | 0.164
10 | CATCACCG | 0.0155
11 | CTCTCGGA | 0.136
12 | CCTCGAAC | -0.00586
13 | GACGCAAC | 0.0742
14 | AAGTCCAT | -0.241
15 | ACAAGGTC | -0.0836
16 | ATCCATCC | 0.00649
17 | GTAAGCCA | 0.0195
18 | AAGCGGAA | -0.0206
19 | CATCATGC | -0.12
20 | ATTTCTTG | -0.125
21 | CAACGAAA | 0.278
22 | ACGGGAGG | 0.0781
23 | GTTAATCA | 0.14
24 | TCTTACAA | -0.102

Row | Sequence | PBM E-score
25 | ATTAGGAC | -0.0376
26 | GTGTTCCA | -0.161
27 | CCAAGTTC | -0.118
28 | GCACCAGC | -0.213
29 | GCCGCTCA | -0.248
30 | GTAAACTA | 0.188
31 | CGGCCCTA | -0.221
32 | GCACCAAA | -0.148
33 | ATCCAGAC | -0.244
34 | AGAGGTGA | -0.212
35 | CTTAGTAC | 0.199
36 | ATGGAACG | 0.402
37 | AGTCAACG | -0.0408
38 | AGTTAATC | 0.0122
39 | GAAAACAC | -0.00741
40 | AGTTGCGG | -0.00187
41 | AGCCGTGA | -0.182
42 | ACGCCCTA | -0.178
43 | ACAGTTAA | 0.0956
44 | ATAATGTG | -0.057
45 | ATCTGACG | -0.226
46 | CGTATAAG | 0.466
47 | ACGACAGC | 0.319
48 | CGATTAAG | 0.186

Row | Sequence | PBM E-score
49 | CACCCTAG | -0.183
50 | AATAGATT | 0.00083
51 | AAGATACT | 0.0297
52 | AATGTGGC | 0.00744
53 | ACCCTCAG | -0.221
54 | GCGAGCGA | 0.31
55 | ATCGCATG | 0.0945
56 | AACAAGGT | -0.127
57 | ATAAATTC | 0.0271
58 | CCGCACTC | 0.123
59 | AAGTCTAC | -0.102
60 | CCACACCC | 0.0227
61 | CATGATCG | 0.0415
62 | GCCCCAGA | -0.144
63 | CAGGCTAC | -0.0932
64 | CGCATATC | 0.194
65 | CTGGTCAC | -0.133
66 | TACTCCCA | -0.0809
67 | ACCGGACA | -0.108
68 | CGGCTAGA | 0.0578
69 | ACGTGGAC | -0.0623
70 | AGGAGTTG | 0.0179
71 | CAAAGCCC | -0.108
72 | AACCTTCA | -0.245

Row | Sequence | PBM E-score
73 | AAGCATAT | 0.00872
74 | AGCCTACC | -0.109
75 | GCAATAAA | 0.0544
76 | CGTGTCGA | 0.0968
77 | AATATACG | 0.461
78 | CATAACTC | -0.0649
79 | CAGGCAAC | -0.0655
80 | CGGAATCA | -0.132
81 | CACGTATG | 0.0729
82 | GGCCTTCA | -0.191
83 | AAATGGAG | 0.0162
84 | CGTACCGC | 0.47
85 | AACCGACA | 0.269
86 | CAATTTGG | -0.136
87 | ACACGGGA | 0.0892
88 | GCTTGTCA | 0.0156
89 | CTCCCACA | -0.196
90 | AACACTTC | -0.00826
91 | ACCACCCT | -0.105
92 | ATCGGCAC | -0.0226
93 | CTATGGGC | -0.243
94 | CCCCGCGC | 0.00461
